pIC50: −log10 of the molar value. Lines with a small IC50 respond at low doses; a fit beyond the top or the lowest dose is shown as a bound at that dose. The AUC spans the tested range (256-fold, ending at the top dose) of the same fit; the more sensitive the line, the further below 1. Where the top dose is marked as inferred, it comes from the curve model; the source does not state it.
Key:
Experiment in all cases: Viability of human cancer cell lines after 72 h of drug (GDSC screen)
GSK-1904529A = compound: CCc1cc(Nc2nccc(-c3c(-c4ccc(OC)c(C(=O)Nc5c(F)cccc5F)c4)nc4ccccn34)n2)c(OC)cc1N1CCC(N2CCN(S(C)(=O)=O)CC2)CC1 [GSK-1904529A]; conditions: top dose 1.024 µM; top dose inferred
Method: (§1)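 Human cancer cell lines in 384-well plates, medium with 10% serum, drug for 72 h over a 256-fold dose range (nine 2-fold or five 4-fold steps up to the top dose). Adherent lines were fixed and stained with the nucleic acid dye Syto60, suspension lines read with resazurin; signal relative to control wells, capped at 0 and 100%. One two-parameter sigmoid per drug and line, fitted in a mixed model over all curves with the slope shared within a line.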

NG-25 = compound: CCN1CCN(Cc2ccc(NC(=O)c3ccc(C)c(Oc4ccnc5[nH]ccc45)c3)cc2C(F)(F)F)CC1 [NG-25]; conditions: top dose 10.24 µM; top dose inferred
Method: as §1

Tipifarnib = compound: Cn1cncc1[C@@](N)(c1ccc(Cl)cc1)c1ccc2c(c1)c(-c1cccc(Cl)c1)cc(=O)n2C [Tipifarnib]; conditions: top dose 16 µM; top dose inferred
Method: as §1

PFI-1 = compound: COc1ccccc1S(=O)(=O)Nc1ccc2c(c1)CN(C)C(=O)N2 [PFI-1]; conditions: top dose 10 µM; top dose inferred
Method: as §1

Cell Line	AUC (GSK-1904529A)	pIC50 (GSK-1904529A)	AUC (NG-25)	pIC50 (NG-25)	AUC (Tipifarnib)	pIC50 (Tipifarnib)	AUC (PFI-1)	pIC50 (PFI-1)
CAKI-1 (kidney, adherent)	0.925	< 5.99	0.831	< 4.99	0.853	< 4.80	0.778	5.20
769-P (kidney, adherent)	0.974	< 5.99	0.85	5.05	0.653	5.56	0.906	< 5.00
CHP-212 (neuroblastoma, adherent)	0.878	6.04	0.973	< 4.99	0.522	5.94	0.757	5.49
8505C (thyroid, adherent)	0.957	< 5.99	0.835	5.14	0.4	6.28	0.86	5.03
VMRC-RCZ (kidney, adherent)	0.982	< 5.99	0.855	< 4.99	0.617	5.66	0.955	< 5.00
A204 (rhabdomyosarcoma, adherent)	0.94	< 5.99	0.611	5.85	0.653	5.52	0.739	5.43
NCI-H727 (lung carcinoid, adherent)	0.922	< 5.99	0.977	< 4.99	0.504	5.99	0.88	< 5.00
LCLC-103H (large cell lung carcinoma, adherent)	0.987	< 5.99	0.909	< 4.99	0.237	6.72	0.987	< 5.00
NCI-H2029 (small cell lung carcinoma, adherent)	0.992	< 5.99	0.952	< 4.99	0.98	< 4.80	0.991	< 5.00
OAW-42 (ovary, adherent)	0.956	< 5.99	0.974	< 4.99	0.499	6.00	0.879	< 5.00
JHH-2 (liver, adherent)	0.982	< 5.99	0.846	5.08	0.87	< 4.80	0.928	< 5.00
UM-UC-3 (bladder, adherent)	0.985	< 5.99	0.843	5.18	0.831	5.03	0.925	< 5.00
HARA (lung squamous cell carcinoma, adherent)	0.972	< 5.99	0.881	< 4.99	0.8	5.03	0.821	5.15
OE33 (oesophagus, adherent)	0.948	< 5.99	0.874	< 4.99	0.775	5.12	0.929	< 5.00
CHSA0011 (chondrosarcoma, adherent)	0.98	< 5.99	0.907	< 4.99	0.98	< 4.80	0.861	< 5.00
HCC-15 (lung squamous cell carcinoma, adherent)	0.972	< 5.99	0.932	< 4.99	0.685	5.42	0.838	5.02
VMRC-MELG (melanoma, adherent)	0.985	< 5.99	0.913	< 4.99	0.967	< 4.80	0.887	< 5.00
TT (thyroid, adherent)	0.948	< 5.99	0.972	< 4.99	0.893	< 4.80	0.932	< 5.00
Hep 3B2_1-7 (liver, adherent)	0.981	< 5.99	0.815	5.25	0.4	6.27	0.866	5.05
KYSE-140 (oesophagus, adherent)	0.981	< 5.99	0.757	5.40	0.469	6.09	0.934	< 5.00

Cell Line	AUC (GSK-1904529A)	pIC50 (GSK-1904529A)	AUC (NG-25)	pIC50 (NG-25)	AUC (Tipifarnib)	pIC50 (Tipifarnib)	AUC (PFI-1)	pIC50 (PFI-1)
SBC-5 (small cell lung carcinoma, adherent)	0.992	< 5.99	0.913	5.00	0.683	5.54	0.929	< 5.00
NY (osteosarcoma, adherent)	0.983	< 5.99	0.989	< 4.99	0.668	5.53	0.894	< 5.00
HN (head and neck, adherent)	0.974	< 5.99	0.989	< 4.99	0.949	< 4.80	0.756	5.49
SCC-4 (head and neck, adherent)	0.961	< 5.99	0.962	< 4.99	0.515	5.95	0.873	< 5.00
MEL-JUSO (melanoma, adherent)	0.946	< 5.99	0.81	5.21	0.133	> 7.20	0.927	< 5.00
A2780 (ovary, semi-adherent)	0.978	< 5.99	0.823	5.20	0.622	5.66	0.922	< 5.00
U251 (glioma, adherent)	0.982	< 5.99	0.822	5.25	0.751	5.30	0.821	5.26
NCI-H196 (small cell lung carcinoma, adherent)	0.988	< 5.99	0.895	< 4.99	0.928	< 4.80	0.979	< 5.00
KON (head and neck, adherent)	0.986	< 5.99	0.987	< 4.99	0.283	6.61	0.825	5.23
NCI-H1944 (lung adenocarcinoma, adherent)	0.936	< 5.99	0.855	5.05	0.617	5.67	0.789	5.32
AN3-CA (endometrium, adherent)	0.962	< 5.99	0.739	5.48	0.386	6.33	0.966	< 5.00
HLE (liver, adherent)	0.922	< 5.99	0.859	5.11	0.308	6.52	0.904	< 5.00
JURL-MK1 (chronic myeloid leukaemia, suspension)	0.975	< 5.99	0.027	> 7.40	0.638	5.62	0.959	< 5.00
Ca-Ski (cervix, adherent)	0.982	< 5.99	0.762	5.39	0.749	5.24	0.733	5.50
NCI-H28 (mesothelioma, adherent)	0.935	< 5.99	0.891	< 4.99	0.776	5.07	0.904	< 5.00
PA-TU-8902 (pancreas, adherent)	0.982	< 5.99	0.932	< 4.99	0.794	5.06	0.978	< 5.00
SW156 (kidney, adherent)	0.958	< 5.99	0.918	< 4.99	0.77	5.17	0.927	< 5.00
NCI-H2405 (lung adenocarcinoma, adherent)	0.966	< 5.99	0.956	< 4.99	0.791	5.09	0.944	< 5.00
GP5d (large intestine, adherent)	0.987	< 5.99	0.849	5.19	0.548	5.88	0.928	< 5.00
NCI-H2023 (lung adenocarcinoma, adherent)	0.979	< 5.99	0.978	< 4.99	0.828	4.88	0.903	< 5.00

Cell Line	AUC (GSK-1904529A)	pIC50 (GSK-1904529A)	AUC (NG-25)	pIC50 (NG-25)	AUC (Tipifarnib)	pIC50 (Tipifarnib)	AUC (PFI-1)	pIC50 (PFI-1)
PANC-02-03 (pancreas, adherent)	0.981	< 5.99	0.896	< 4.99	0.847	4.81	0.805	5.20
PC-3 [JPC-3] (lung adenocarcinoma, adherent)	0.97	< 5.99	0.862	< 4.99	0.701	5.35	0.95	< 5.00
LS-180 (large intestine, adherent)	0.98	< 5.99	0.943	< 4.99	0.39	6.32	0.884	< 5.00
8305C (thyroid, adherent)	0.928	< 5.99	0.958	< 4.99	0.545	5.86	0.855	< 5.00
HGC-27 (stomach, adherent)	0.927	< 5.99	0.869	5.15	0.55	5.87	0.758	5.52
MKN1 (stomach, adherent)	0.958	< 5.99	0.953	< 4.99	0.585	5.76	0.902	< 5.00
Detroit562 (head and neck, adherent)	0.972	< 5.99	0.972	< 4.99	0.705	5.43	0.842	5.18
RKN (ovary, adherent)	0.953	< 5.99	0.909	< 4.99	0.752	5.25	0.915	< 5.00
LNZTA3WT4 (glioma, adherent)	0.983	< 5.99	0.942	< 4.99	0.822	5.04	0.915	< 5.00
HOS (osteosarcoma, adherent)	0.992	< 5.99	0.992	< 4.99	0.42	6.20	0.855	5.22
EN (endometrium, adherent)	0.953	< 5.99	0.842	5.00	0.726	5.28	0.982	< 5.00
KMH-2 (thyroid, adherent)	0.971	< 5.99	0.974	< 4.99	0.423	6.20	0.777	5.45
SAS (head and neck, adherent)	0.973	< 5.99	0.903	< 4.99	0.847	4.86	0.652	5.76
T-T (oesophagus, adherent)	0.949	< 5.99	0.838	5.16	0.425	6.20	0.937	< 5.00
CAL-39 (cervix, adherent)	0.946	< 5.99	0.943	< 4.99	0.461	6.11	0.875	< 5.00
NCI-H810 (large cell lung carcinoma, adherent)	0.954	< 5.99	0.851	5.13	0.594	5.75	0.83	5.23
PCI-38 (head and neck, adherent)	0.979	< 5.99	0.825	5.21	0.866	4.84	0.78	5.38
NCI-H2122 (lung adenocarcinoma, adherent)	0.986	< 5.99	0.988	< 4.99	0.271	6.63	0.973	< 5.00
NCI-H2110 (non-small cell lung carcinoma, adherent)	0.977	< 5.99	0.627	5.84	0.634	5.63	0.932	< 5.00
SK-HEP-1 (liver, adherent)	0.97	< 5.99	0.875	5.05	0.359	6.38	0.865	5.10

Source: the supplement of paper PMC4967469
